# In the supplement of paper PMC11417369:
# Some of the results follow.
# Tested on: PfAP2-HC AP2 domain (GST-tagged)
# Assay: gcPBM binding intensity (ln(normalized median fluorescence intensity)); higher = stronger DNA binding
# Outline: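 In this array assay, P. falciparum DNA-binding domains with a GST tag, expressed in E. coli, were applied for 1 h to primer-extended double-stranded 36-bp intergenic genomic probes and negative controls on an Agilent 4 × 180k array. Bound protein was visualised with Alexa488 anti-GST antibody at 488 nm. Binding intensity is the highest Masliner-normalised natural-log median intensity across replicate spots of either probe orientation.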
row,Sequence,gcPBM binding intensity (ln)
1,ATAGTTTAATTTATATGTACATATAATATTGATTTG [XGTACX_site7520],9.7
2,TATATTTTATATTGGTGTACAATTTTTTTTTTTTTT [XGTACX_site4291],9.54
3,ATAAATGACAGACACACACACAAAAAAAAAAAACAA [CACACA_site2626],11.5
4,ACCCTATCTGTAACTACACACCGCATATTGTTTACT [CACACA_site5661],10.2
5,AAATATTTATATGTTACACACTGTTTATAACTTTCT [CACACA_site6752],9.9
6,CTTCTGTAATTATCACGTACATATAATAATTAAAAT [XGTACX_site8973],9.52
7,TTTTTATCTTTGCTGTGTACATAAATAAAAATAACT [XGTACX_site7625],9.51
8,CCTTTTTTTTTTTTATGTACTAAAATAAAATTAGAA [XGTACX_site5956],9.35
9,ATAACAACCCAATGTTGTACATTTAAATATAACGTA [XGTACX_site7114],9.66
10,TTCTAAAATTATATAGTGCAATTATATTAATTTTTC,9.51
11,TATAACATATGACACACACACATACATACACAAAAA [CACACA_site6935],10.5
12,TATATATATTTATGTACACACACACCGATAAATAAA [CACACA_site4404],10.6
13,ACAATTTATATTATATGTACTTAAAAAGTTCGTAAA [XGTACX_site6421],9.47
14,TTTTATACATAAATATGTACGTATATATAATGAATT [XGTACX_site1337],9.53
15,GCCTCATCGTAGCAGTGTACGTTTTTTTTTTTTTTT [XGTACX_site8648],9.8
16,TTGTGTTTGAAAAAATGTACATGTGTCTTACAACAA [XGTACX_site8371],9.59
17,TTATACAGATATTTAACACACATTTTATAAAGTGCC [CACACA_site4851],9.65
18,TTACGCGCTTATTACACACACATACAAATAAGGATT [CACACA_site3486],9.94
19,AAAAATAAAAAAAATACATGCAATGAAACATTTATT [TGCATGCA_site263],9.59
20,ATTTGTATTGTATATGCACACATAGAACACTTTTTT [CACACA_site9373],9.95
21,AACAAAATAAAAAAAACATGCAAGAATTCTTATATG [TGCATGCA_site714],9.84
22,AAACAAAAAAGAAAAACAATGAGATAAAGAAGAGAA [CACACA_negctrl_site804],9.82
23,AAAAGAAAAATATTCACACATATAAATAATATATAA [CACACA_site4201],9.57

row,Sequence,gcPBM binding intensity (ln)
1,TTTAATTATTTATTTTGTACATATATTATATATATA [XGTACX_site5760],9.68
2,ATTTTTATATATATCTGTACTAAAAAAAAAAAAAAA [XGTACX_site5258],9.17
3,AGAAGTAAAAAAATAGCACACACACTAATACCAACA [CACACA_site8354],10.5
4,TTATATTAATATTATATTTAAAAATAAAATATAAAT [TGCATGCA_negctrl_site79],8.91
5,TATTTATATATTTGTTGTACGTATTTATATATTCTT [XGTACX_site3622],9.9
6,ATTAATTTGATTTTAATAAGAATATTTGTGGGGAAT [GTGCAC_negctrl_site198],9.38
7,TTTTATTTTTGTTGGTCCCTCATTTAAGTTAATAAA [TGCATGCA_negctrl_site465],9.57
8,ATATTGATTTGTGGCACACATATAATATATTCCTAT [CACACA_site3046],9.82
9,TTTTCAATATATATATGCTGAATTTATAATTTGTAT [CACACA_negctrl_site1774],9.67
10,TGAATAATAAAAAATACACACACATATATATATATT [CACACA_site9146],10.1
11,ACCATATAAAGTTAGGTGCATTTGTATGTATCTTAC,9.65
12,TCTTGTTCGCCCTATTGTACAAACATATATTGTGAT [XGTACX_site2884],9.78
13,TTATTTTGATCTGGTTGTACATATAATATATAGTGG [XGTACX_site357],9.58
14,AAAAGAGAAATGGGCACACACACACCCATTATATAT [CACACA_site1530],10.2
15,ATATATACATACATATGTACATATGTAGATATATTT [XGTACX_site1230],9.76
16,ATTTTTTTTGTTTATTCTTATGTGGTTATTAAATTA [CACACA_negctrl_site1000],9.73
17,TATTTGTTTAAATTCACACACGTATATATATTTATA [CACACA_site5651],9.9
18,ATTATGAAATATCGTGCACACACGAATAATATAAGA [CACACA_site1294],9.87
19,TACGTTTTAAAACACACACACAAAAAAAAAAAAAAA [CACACA_site3876],9.78
20,ATGTACCTTCAAACTACACACAAATGAAGGAACACA [CACACA_site3330],9.82
21,ATCTAATAAAAATACACACACATATGGTTTGTGAAT [CACACA_site6962],10.1
22,AAATATTACATACACGCACACATTAAAATATTTAAA [CACACA_site5440],10.1
23,TGTAGTCTGGAGAAGAGTACACAGTATCTGGTAGCT [XGTACX_site2036],9.72

row,Sequence,gcPBM binding intensity (ln)
1,TTAAAAAATCACAACACACACACACGCAAAAAAAAA [CACACA_site6793],10.8
2,AAAAATAACATATAAACACACATATAGATTTATATA [CACACA_site7738],9.83
3,ATATAGAATGTTTACACACGCAATAAATATATATAT [CACACA_site217],9.85
4,GCGTATCATTTTAAAACACACAGGATTTTATAAGTA [CACACA_site1225],9.68
5,ATGGTATAAAAAAATACACACTTATTTATATTCTTA [CACACA_site6370],9.65
6,AATTTTTAGAAGAACACACACATATATATTATGACC [CACACA_site246],10.3
7,ATTATGCACAGACACACACACACACTACTAAAAAAT [CACACA_site7252],10.7
8,ATAGGAGAAAAAGAATGTACGTATGATGTTGAAAAT [XGTACX_site7779],9.96
9,AAAAAAAATAAAAATATATATATATATATATAAATA [GTGCAC_negctrl_site676],9.68
10,AAGCATTTTTTTTAAAGCCTGTTCATCATCCTTACC [CACACA_negctrl_site129],9.44
11,AAATAAATAAATAGAGTGCATATATATATATATTTT,9.75
12,CTTTTTATTTATCATACACACACAGAAAAAAAAAAA [CACACA_site7935],10.1
13,ATATACAAAGGATTAACACACATATTATTATAGATA [CACACA_site6966],9.87
14,TCTATTAATTAATATACACACATTATATATATATAT [CACACA_site8815],9.99
15,AATATATATATATATATATTTTTGTTAGAATATGGA [CACACA_negctrl_site212],9.53
16,AAATAACTTTTAAATACACACGTAAAATATATTGTG [CACACA_site9085],9.73
17,ACCGTGGGAGGACACACACACACACGCACATATATA [CACACA_site6289],11.1
18,TACATTATAAATATTACACACTTTATAAAATAATAA [CACACA_site6096],9.58
19,TCCTTTTTTTTTTATGCACACACAATTATACATTCC [CACACA_site9287],10.3
20,TTAACCACTAAAAGTACACACATATATACATATATA [CACACA_site3912],9.81
21,ATAATATTTTTATGTACACACCTTAATCCTTAAAAG [CACACA_site5881],9.66
22,ATATAAGTACGGCATGCATGCACATTTTTTTATTCC [TGCATGCA_site101],10
23,TTATAAATTCAATGTACTACACAAAATGAATTTAAT [XGTACX_site6683],9.51

row,Sequence,gcPBM binding intensity (ln)
1,TACAGACATAGACACACACACACGCATAAAAAAAAA [CACACA_site6820],11.4
2,TTCCTATAAAAAAACACACACATATAAATATAAATA [CACACA_site7154],10.4
3,AAAAAAAAAAAAAACACACACACACGCAAATACATA [CACACA_site6474],11.4
4,TCCTTAAATATAAAGGTGCTATGCAGACCTTATGTT [GTGCAC_site9472],9.31
5,TGGCTTATTCAGAAATGTACACATATAAATATATAT [XGTACX_site3765],9.66
6,AAAATAATATATGTATGTACACAATTATTTATAAGT [XGTACX_site7267],9.88
7,TTTCTTTTAATTATCCGTACACAAACAATAAAATAA [XGTACX_site7841],9.26
8,TGAATAAATAAGATACGTACACACATATACAAAATA [XGTACX_site7758],10.1
9,TGTGCTCGCTATTACACACTCATTGGGATAAAATTG [CACACA_site2029],9.6
10,TACATAAACATTTATACACACATTATATATACATAT [CACACA_site8028],10.1
11,AATGTATAAAAGTTTTGTACATATTCTCACACATAT [XGTACX_site965],9.89
12,ATATACCATATGCATGGTACACATTTACAACAAAAA [XGTACX_site3142],9.57
13,TAGTTGTGAGTTACATGTACATGTATTTATTTTTTA [XGTACX_site7088],10
14,GATAACAATATGTGTACACATTTATATCTCCACATA [CACACA_site5442],9.84
15,TTTATTAAATAAAGCACACACAACAACTTTTCACAA [CACACA_site4132],10.1
16,ATAACGTAAACAATGTGGACACATACATAAATATAT [XGTACX_site707],9.94
17,TTACAAAACCGATGTTGTACATTCAATAGATAATGT [XGTACX_site3806],9.58
18,GTCATCATAATCTATTGTACAAAAATTTATACAGAT [XGTACX_site1059],9.63
19,TACATTAAACGAATAGTGCAAGAAGTATTCGTATAA [GTGCAC_site9939],10.1
20,TATAAAAATAAGTATACACACAAAATGCGTAACTTT [CACACA_site1295],9.71
